Results published in PubChem BioAssay AID1030 (National Center for Advancing Translational Sciences (NCATS), 2008).
The whole screen tested about 220,000 compounds, of which about 16,000 (7.3%) were called active. The shares of active, inactive and inconclusive entries below differ from those in the screen. Calls follow the shape of the dose curve; as a rule, active = well fitted inhibition curve with a large enough effect (not every such curve was filed as active); inconclusive = small, poorly fitted or top-dose-only effect, or another doubt; inactive = no such curve, though single readings can be large or run the other way. No potency is given beside an inconclusive call; the fits are too rough.

target: Aldehyde dehydrogenase 1A1 (Homo sapiens) (UniProt P00352); experiment: qHTS Assay for Inhibitors of Aldehyde Dehydrogenase 1 (ALDH1A1); conditions: Purified ALDH1A1, NADH fluorescence, propionaldehyde substrate; series mostly up to 75.3 µM; activity, negative = inhibition: at the top concentration;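 as to activity, negative = inhibition: plate controls were no enzyme wells and a reference inhibitor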
Potency is read from the fitted curve at half-maximal effect; tags tell the direction and shape of the fitted curve.

Sequence of UniProt P00352 (P00352 whole entry, looked up): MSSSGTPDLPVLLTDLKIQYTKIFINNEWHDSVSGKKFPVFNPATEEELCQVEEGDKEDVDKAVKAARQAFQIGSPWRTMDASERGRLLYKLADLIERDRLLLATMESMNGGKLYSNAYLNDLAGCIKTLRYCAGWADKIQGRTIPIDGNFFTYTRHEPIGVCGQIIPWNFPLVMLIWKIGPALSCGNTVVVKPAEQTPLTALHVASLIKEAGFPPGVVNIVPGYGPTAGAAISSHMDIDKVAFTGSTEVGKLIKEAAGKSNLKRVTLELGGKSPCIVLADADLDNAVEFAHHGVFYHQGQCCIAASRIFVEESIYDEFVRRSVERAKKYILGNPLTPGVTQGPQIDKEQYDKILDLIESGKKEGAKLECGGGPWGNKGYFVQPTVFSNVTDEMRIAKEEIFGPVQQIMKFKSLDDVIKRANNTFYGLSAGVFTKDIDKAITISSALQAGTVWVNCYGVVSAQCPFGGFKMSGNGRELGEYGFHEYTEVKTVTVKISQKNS

Compound	Potency	activity, negative = inhibition
CC(C)CCn1cnc2c(sc3nc4c(cc32)CSC(C)(C)C4)c1=O	active: 1.78 µM	–
N#Cc1cn(-c2ccccc2)nc1-c1ccco1	active: 28.2 µM	–
CN1CCN(C(=O)/C(C#N)=C/c2ccc(F)cc2)CC1	active: 1.78 µM	–
COc1ccc(CNC(=O)C2CC(c3ccc(F)cc3)=NO2)cc1 (stereo not drawn)	inconclusive [inhibitor, partial curve]	–
COc1cccc(CN2CCNC(=O)C2CC(=O)O)c1OC (stereo not drawn)	inconclusive [inhibitor, single point]	–
COc1ccc(CNc2nc(-c3ccc4c(c3)OCO4)nc3ccccc23)c(OC)c1	–	inactive: 2.56%
Cc1ccc(S(=O)(=O)Nc2ccc(S(=O)(=O)NC(C)(C)C)cc2)cc1	inconclusive [inhibitor, single point]	–
COc1ccc(-n2nc3c(c2NC(=O)C2CC2)CS(=O)C3)cc1 (stereo not drawn)	–	inactive: -2.56%
CC(C)(C)N(CC#CCC(O)(c1ccccc1)c1ccccc1)CCO	inconclusive [inhibitor, single point]	–
S=c1[nH]nc(Cc2ccccc2)n1-c1ccc(Cl)cc1	inconclusive [inhibitor, single point]	–
COc1ccc(NS(=O)(=O)c2cc(NC(=O)/C=C/c3cc(OC)c(OC)c(OC)c3)ccc2N2CCCCC2)cc1	inconclusive [inhibitor, single point]	–
Cc1ccc(C(=O)N/C(=C\c2ccc3c(c2)OCO3)C(=O)Nc2ccc(C(=O)O)cc2)cc1	–	inactive: -54.4%
CCCOc1ccc(-c2nnc(-c3ccncc3)o2)cc1	inconclusive [inhibitor, single point]	–
Cc1cccc(N2C(=O)CC(Sc3nnc(C)s3)C2=O)c1 (stereo not drawn)	active: 2.82 µM	–
O=C1OC(Nc2ccc3ncccc3c2)c2ccccc21 (stereo not drawn)	inconclusive [inhibitor, partial curve]	–
N#C/C(=C(/O)CSc1ccccn1)c1nc2ccccc2s1	active: 8.91 µM	–
CCO/C(C)=C1\C(=O)N(CC)c2ccccc21	inconclusive [inhibitor, partial curve]	–
Cc1ccc(NC(=O)c2cc(NC(=O)CCC(=O)O)ccc2N2CCCCC2)cc1	inconclusive [inhibitor, single point]	–
Fc1cc(F)c2nc(N3CCCC3)sc2c1	–	inactive: 1.56%
CC(C)(C)C1CCc2c(sc(NC(=O)c3cc(C4CC4)on3)c2C#N)C1 (stereo not drawn)	inconclusive [inhibitor, single point]	–
COc1cc(/C=N/N=C2\CC3CCC2(C)C3(C)C)ccc1O (stereo not drawn)	inconclusive [inhibitor, partial curve]	–
COc1ccc(C(CCNCc2ccc(N(C)C)cc2)C(C)C)cc1 (stereo not drawn)	inconclusive [inhibitor, partial curve]	–
COc1nc(-c2ccccc2)cc(-c2ccc3c(c2)OCO3)c1C#N	inconclusive [inhibitor, partial curve]	–
Cc1cc(C)cc(N(C(C)C(=O)NCc2ccc3c(c2)OCO3)S(C)(=O)=O)c1 (stereo not drawn)	–	inactive: 9.6%
COc1ccc(CCNC(=O)c2ccc(-c3cccc([N+](=O)[O-])c3)o2)cc1OC	active: 12.6 µM	–

Compound	Potency	activity, negative = inhibition
COc1ccc(C2/C=C\CN(CC(C)C)CC(=O)N2Cc2cccc(F)c2)cc1 (stereo not drawn)	inconclusive [inhibitor, partial curve]	–
CCN(CC)c1ccc(/C=N/N2CCOCC2)c(O)c1	inconclusive [inhibitor, partial curve]	–
O=C1N/C(=N\S(=O)(=O)Cc2ccccc2)S/C1=C/c1cc([N+](=O)[O-])ccc1O	inconclusive [inhibitor, single point]	–
CSC1=C(C#N)C(c2ccncc2)C(C(=O)Nc2ccccc2)=C(C)N1 (stereo not drawn)	inconclusive [inhibitor, single point]	–
Fc1ccc(NC(=S)Nc2cccc3cnccc23)cc1	active: 7.94 µM	–
O=C(Cn1cnc2c(cnn2-c2ccccc2)c1=O)c1ccc(Cl)cc1	–	inactive: 9.07%
Nc1nc(CSc2nc3ccccc3s2)nc(N2CCCCC2)n1	inconclusive [inhibitor, partial curve]	–
CCOc1ccccc1N1CCN(Cc2ccc(Br)s2)CC1	–	inactive: -14.8%
CC1Cc2nc(SCC(=O)Nc3ccc4c(c3)OCO4)n(Cc3ccccc3)c(=O)c2S1 (stereo not drawn)	inconclusive [inhibitor, full curve]	–
Cc1cccc(-n2c(C)cc(C=C(C#N)C#N)c2C)c1	–	inactive: 4.08%
CCC(C(=O)OC)(C(=O)OC)c1ccc([N+](=O)[O-])cc1	inconclusive [inhibitor, single point]	–
CCOc1ccc(N(C)S(=O)(=O)c2ccc(C)c(C(=O)OCC(=O)c3c[nH]c4ccccc34)c2)cc1	–	inactive: 0.225%
COC(=O)C1(CC(C)C)C=C2C(=C(C)C(=O)C2C)CN1 (stereo not drawn)	inconclusive [inhibitor, single point]	–
O=C(COC(=O)CCC(=O)c1cccs1)Nc1cccc(S(=O)(=O)N2CCOCC2)c1	–	inactive: -48%
Cc1cc(=O)n2[nH]c(C)c(-c3ccccc3)c2n1	–	inactive: 2.43%
CC(C)Cn1c(-c2ccc(C#N)cc2)nc2c1c(=O)[nH]c(=O)n2CC(C)C	inconclusive [inhibitor, partial curve]	–
CC(C)OCCCNc1ncnc2c1[nH]c1ccccc12	inconclusive [inhibitor, single point]	–
C[C@@H]1C=C[C@](Cc2ccccc2)(C(=O)NCCCNc2ncc(C(F)(F)F)cc2Cl)N1C(=O)c1ccccc1	inconclusive [inhibitor, single point]	–
Cn1c(=O)c2c(ncn2CC(=O)Nc2ccccc2Sc2ccccc2)n(C)c1=O	inconclusive [inhibitor, partial curve]	–
Oc1c(C(Nc2cccc(C(F)(F)F)c2)c2ccncc2)ccc2cccnc12 (stereo not drawn)	active: 17.8 µM	–
N#CCCn1c(=O)c(CCc2ccccc2)nc2cnc(Oc3cccc(Cl)c3)nc21	active: 10 µM	–
COc1cccc(-c2ccc3ncnc(N(C)Cc4ccco4)c3c2)c1	inconclusive [inhibitor, single point]	–
CC(=O)NCCn1c(SCc2ccc(C)cc2)nc2ccccc2c1=O	inconclusive [inhibitor, single point]	–
O=C(c1ccc(=O)[nH]n1)N1CCN(S(=O)(=O)c2ccc3ccccc3c2)CC1	inconclusive [inhibitor, single point]	–
O=C(CCN1CCN(S(=O)(=O)c2ccc(Br)cc2)CC1)Nc1ccccc1F	inconclusive [inhibitor, partial curve]	–

Compound	Potency	activity, negative = inhibition
Cc1cc(C=O)c(C)n1-c1cccc(C(=O)O)c1	–	inactive: -3.12%
CCOc1cc(S(=O)(=O)N(CC)CC)c(OCC)cc1-n1cnnn1	inconclusive [inhibitor, single point]	–
CC(C)C(c1nnnn1C(C)(C)C)N1CCOCC1 (stereo not drawn)	inconclusive [inhibitor, single point]	–
CC(=O)OC(Cn1ccnc1)c1ccccc1 (stereo not drawn)	–	inactive: 6.13%
COc1ccc(OC)c(-n2nnnc2SCC(=O)Nc2cc(C)ccc2OC)c1	–	inactive: -7.65%
Cc1cc(/N=C/C=C2\N(C)c3ccccc3C2(C)C)n(CCC#N)n1	–	inactive: 8.29%
c1ccc(-n2nnnc2Oc2ccc(-n3ccnc3)cc2)cc1	inconclusive [inhibitor, single point]	–
COc1ccc2c(c1)c1ncnc(N3CCN(Cc4ccc5c(c4)OCO5)CC3)c1n2C	inconclusive [inhibitor, partial curve]	–
Cc1ccc2nc(SCC(=O)Nc3cc([N+](=O)[O-])ccc3F)[nH]c2c1	inconclusive [inhibitor, single point]	–
CC(Sc1nncn1-c1ccccc1)C(=O)Nc1cccc([N+](=O)[O-])c1 (stereo not drawn)	inconclusive [inhibitor, single point]	–
Cc1ccc(C)c(Cc2c(C)nc3c(C(=O)NCc4ccc5c(c4)OCO5)cnn3c2C)c1	inconclusive [inhibitor, single point]	–
O=C(CCc1ccccc1)Nc1ccc(S(=O)(=O)N2CCCC2)cc1	active: 12.6 µM	–
CCN(CC)S(=O)(=O)c1cccc(C(=O)N/N=C2\CC(=O)CC(C)(C)C2)c1	inconclusive [inhibitor, single point]	–
O=C1CC(c2ccc(O)c(O)c2)Oc2cc(O)cc(O)c21 (stereo not drawn)	inconclusive [inhibitor, single point]	–
CCCn1cnc2sc(CC)cc2c1=O	inconclusive [inhibitor, single point]	–
O=C1CCC(=O)N1CNc1ccc(Oc2ccccc2)cc1	inconclusive [inhibitor, single point]	–
COc1ccc(OC)c(C(=O)/C=C/c2ccccc2C(F)(F)F)c1	–	inactive: -13.2%
O=C(NNc1ccccc1)C(=O)NNS(=O)(=O)c1ccc(CCCl)cc1	active: 6.31 µM	–
COc1ccc(/C=C2\SC(=O)N(CC(=O)Nc3cccnc3)C2=O)cc1OC	–	inactive: 1.11%
COc1cccc(/C=N/NC(=O)CC2C(=O)NN=C2C)c1OC (stereo not drawn)	inconclusive [inhibitor, single point]	–
Cc1c(CCOC(=O)C23CC4(C)CC(C)(CC(C)(C4)C2)C3)sc[n+]1CC(=O)c1ccccc1	–	inactive: 9.36%
CCOC(=O)CSc1nc(C)c2cc(C)c(C)cc2n1	–	inactive: -14.5%
CC(=O)/C(=N/Nc1cccc(Cl)c1)Sc1nnc(C(O)c2ccccc2)n1-c1ccccc1 (stereo not drawn)	–	inactive: 12.5%
